Source: the supplement of paper PMC12217912
The list shows a part of the results. Sequences were assembled here from the parent chain. Inactive controls read about 0.05.

B1: TEV protease; numbered along this chain (parent)
chain: MGESLFKGPRDYNPISSSICHLTNESDGHTTSLYGIGFGPFIITNKHLFRRNNGTLVVQSLHGVFKVKDTTTLQQHLVDGRDMIIIRMPKDFPPFPQKLKFREPQREERICLVTTNFQTKSMSSMVSDTSCTFPSGDGIFWKHWIQTKDGQCGSPLVSTRDGFIVGIHSASNFTNTNNYFTSVPKNFMELLTNQEAQQWVSGWRLNADSVLWGGHKVFMVKPEEPFQPVKEATQL

Variants of: B1
Assay: raw area under fraction-flipped curve 0-4 h after induction (AUC4h, not background-subtracted), DNA-recorder readout of cleavage of the substrate (dimensionless); higher = more cleavage of the substrate by the protease variant
Details: temperature: 34 °C; time window: 0-4 h after rhamnose induction
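Also: Bxb1 expression induced with 0.2% (w/v) L-rhamnose at OD600 near 0.5, cultures sampled hourly, flipped fraction per protease–substrate barcode pair counted by paired-end Illumina sequencing.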

Row | Variant | area with substrate ENLYDQS | area with substrate ENLYEQS | area with substrate ENLYHQS | area with substrate ENLYIQS | area with substrate ENLYKQS | area with substrate ENLYNQS | area with substrate ENLYPQS | area with substrate ENLYQQS | area with substrate ENLYRQS | area with substrate ENLYVQS | area with substrate ENLYWQS | area with substrate ENLYGQS | area with substrate ENLYMQS | area with substrate ENLYSQS | area with substrate ENLYYQS | area with substrate ENLYLQS | area with substrate ENLYTQS
1 | K68Q | 0.0929 | 0.0746 | 0.0663 | 0.141 | 0.0595 | 0.0624 | 0.0707 | 0.072 | 0.0628 | 0.108 | 0.105 | – | – | – | – | – | –
2 | F163L | – | 0.0518 | – | – | 0.074 | – | 0.0801 | – | 0.079 | – | 0.0866 | 0.0928 | 0.0949 | 0.0627 | 0.066 | – | –
3 | T119H | – | 0.0458 | 0.0633 | 0.153 | 0.0483 | 0.067 | – | – | 0.0624 | 0.155 | – | – | – | – | – | 0.0861 | –
4 | F187C | – | 0.0601 | 0.0568 | – | – | 0.0571 | 0.0603 | 0.0612 | – | – | – | – | 0.0717 | – | – | – | –
5 | F38A | 0.0631 | 0.0681 | – | 0.0906 | – | 0.0488 | 0.0549 | 0.0524 | – | 0.0547 | 0.064 | 0.0476 | 0.0705 | 0.0626 | 0.0495 | – | –
6 | R10N | – | 0.0611 | 0.0464 | 0.0927 | 0.0584 | 0.0576 | – | 0.0814 | 0.0647 | – | 0.0741 | – | 0.0847 | 0.0525 | – | 0.0786 | –
7 | H76A | 0.061 | 0.0727 | 0.0602 | – | 0.0622 | 0.0571 | 0.0799 | 0.0639 | 0.0642 | 0.0775 | 0.0629 | – | – | – | – | 0.0688 | 0.0605
8 | S124E | 0.0621 | 0.0841 | 0.0786 | 0.116 | 0.0426 | 0.0755 | – | 0.0483 | 0.06 | – | 0.0828 | 0.051 | 0.0894 | 0.0801 | – | – | 0.0702
9 | N13D | 0.0612 | 0.0706 | 0.0727 | 0.113 | 0.0554 | 0.0643 | 0.0783 | – | 0.0677 | 0.143 | 0.0537 | 0.0788 | – | – | – | 0.0845 | 0.0872
10 | S18I | 0.0574 | 0.0747 | 0.0633 | 0.123 | – | 0.0588 | – | 0.0636 | 0.0598 | 0.119 | – | 0.0613 | – | – | – | 0.0879 | 0.0768
11 | K230T | – | 0.0678 | 0.0667 | 0.121 | 0.0673 | 0.0604 | 0.112 | 0.058 | 0.0606 | – | 0.0796 | 0.0686 | 0.0742 | 0.0633 | 0.0633 | 0.065 | 0.0715
12 | N52H | – | 0.0816 | 0.0553 | – | – | 0.0439 | 0.0493 | 0.0628 | 0.0598 | 0.0643 | 0.0628 | 0.0609 | – | – | – | – | –
13 | V58K | – | 0.0457 | 0.0395 | 0.0535 | 0.0281 | 0.0629 | 0.0463 | 0.0455 | – | – | 0.05 | 0.0359 | 0.065 | – | – | 0.054 | 0.0453
14 | Q234H | – | 0.0567 | 0.0705 | 0.135 | – | 0.0866 | 0.0652 | – | 0.0318 | – | – | 0.0666 | – | – | – | 0.14 | –
15 | Q234R | 0.0524 | 0.0636 | 0.0791 | 0.119 | 0.0669 | 0.0694 | – | – | 0.0824 | – | 0.0782 | 0.0669 | 0.0848 | – | 0.0882 | 0.0676 | –
16 | G166N | – | 0.058 | 0.0673 | 0.0397 | 0.0508 | – | 0.0453 | – | – | 0.0631 | 0.0471 | 0.0541 | 0.0517 | 0.0545 | – | – | –
17 | Y34Q | – | – | – | – | 0.0342 | – | 0.0534 | – | – | – | 0.0488 | – | – | – | – | – | 0.052
18 | W212F | 0.0464 | 0.0606 | 0.0735 | 0.105 | 0.0824 | 0.0618 | – | 0.0685 | 0.0624 | 0.0982 | 0.0886 | 0.0624 | 0.0859 | 0.0875 | – | – | –
19 | E108S | – | 0.0551 | – | – | 0.0172 | 0.06 | – | 0.0613 | 0.0548 | 0.0791 | 0.0559 | 0.0522 | 0.0627 | 0.0456 | – | – | –
20 | S26G | – | 0.0598 | 0.0451 | – | – | 0.0632 | 0.0747 | 0.0567 | – | – | – | 0.0693 | – | 0.0595 | – | – | 0.0161

Row | Variant | area with substrate ENLYDQS | area with substrate ENLYEQS | area with substrate ENLYHQS | area with substrate ENLYIQS | area with substrate ENLYKQS | area with substrate ENLYNQS | area with substrate ENLYPQS | area with substrate ENLYQQS | area with substrate ENLYRQS | area with substrate ENLYVQS | area with substrate ENLYWQS | area with substrate ENLYGQS | area with substrate ENLYMQS | area with substrate ENLYSQS | area with substrate ENLYYQS | area with substrate ENLYLQS | area with substrate ENLYTQS
21 | S26A | – | 0.0407 | 0.0608 | 0.0877 | 0.0422 | 0.0722 | 0.0712 | 0.0698 | 0.0681 | – | 0.0757 | 0.0684 | 0.0617 | 0.0737 | – | 0.0715 | 0.0704
22 | K148F | – | – | 0.0614 | 0.127 | – | 0.0661 | – | – | 0.0852 | – | – | – | – | – | – | – | –
23 | V113T | – | 0.0603 | 0.0624 | 0.0676 | 0.0736 | 0.0853 | – | – | 0.0875 | 0.0862 | – | 0.0627 | 0.0592 | – | – | – | 0.0636
24 | A207Y | – | 0.068 | – | – | 0.0143 | 0.0714 | 0.0806 | – | – | 0.123 | – | – | 0.0809 | 0.0788 | – | – | –
25 | T30K | – | 0.0692 | 0.0732 | 0.119 | – | 0.0726 | 0.0874 | 0.0606 | 0.0619 | 0.0813 | 0.0733 | 0.0812 | 0.0639 | – | – | – | –
26 | G8R | – | – | – | – | – | – | – | – | – | – | – | – | – | – | 0.0664 | – | 0.111
27 | G8V | – | – | – | – | – | 0.0839 | 0.0838 | 0.0675 | 0.0723 | – | – | 0.0573 | – | – | – | – | –
28 | D69R | – | 0.0704 | 0.0695 | 0.114 | 0.0656 | – | 0.0608 | 0.0481 | 0.0662 | 0.114 | 0.0687 | 0.0598 | 0.0737 | 0.0678 | 0.0593 | – | 0.0843
29 | F92A | 0.064 | 0.0614 | 0.0651 | 0.121 | 0.076 | – | 0.0744 | – | 0.067 | 0.159 | 0.0769 | – | – | – | – | 0.11 | –
30 | V183F | – | 0.0755 | 0.0538 | 0.131 | 0.0377 | 0.0627 | 0.0714 | – | 0.0852 | 0.114 | 0.0715 | 0.0695 | 0.0912 | 0.0295 | – | – | 0.0904
31 | P40E | – | – | 0.0735 | – | – | 0.0718 | – | 0.0622 | – | – | 0.0827 | – | – | 0.0869 | – | – | –
32 | I42H | – | – | 0.0375 | – | – | 0.0411 | – | – | – | – | 0.0488 | – | 0.0814 | 0.0764 | 0.0356 | 0.0528 | –
33 | N175T | – | 0.0595 | – | 0.0903 | 0.0708 | – | 0.0438 | – | – | – | 0.0551 | 0.0578 | 0.0609 | 0.0635 | – | – | –
34 | R109H | – | 0.0812 | 0.0728 | 0.107 | 0.0557 | – | 0.0777 | – | – | 0.116 | 0.084 | 0.0695 | 0.0617 | 0.0635 | – | 0.112 | 0.055
35 | I110M | – | 0.0657 | 0.0534 | 0.0742 | 0.053 | 0.0507 | – | 0.0499 | – | – | 0.0648 | 0.0556 | 0.0655 | 0.0732 | 0.0582 | – | 0.0637
36 | I139F | 0.0931 | 0.0769 | 0.0731 | 0.0704 | 0.0573 | 0.057 | 0.0712 | 0.0745 | 0.0752 | 0.101 | 0.0866 | – | 0.0888 | – | – | – | –
37 | Q227T | – | 0.065 | 0.0764 | 0.128 | – | 0.0754 | 0.0568 | 0.0256 | 0.0726 | 0.164 | 0.0906 | 0.0653 | – | 0.0716 | 0.0798 | – | –
38 | F95W | – | 0.0636 | 0.0682 | 0.0982 | – | 0.0684 | 0.0684 | 0.0691 | 0.0582 | – | 0.0654 | 0.055 | 0.0838 | 0.0575 | – | 0.0662 | –
39 | C131S | – | – | 0.056 | – | – | 0.0629 | – | – | – | – | 0.0599 | 0.0566 | – | – | – | – | –
40 | T132R | 0.0569 | 0.063 | 0.0537 | – | – | – | – | 0.0567 | – | 0.0473 | 0.0542 | 0.051 | 0.0427 | 0.0514 | – | – | –
